From the supplement of paper PMC11417369
± gives the standard deviation of the averaged measurements. The list shows a part of the results.

system: PfAP2-EXP AP2 domain (GST-tagged); assay: gcPBM binding intensity (ln(normalized median fluorescence intensity)); higher = stronger DNA binding
How it was run: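 Binding of GST-tagged P. falciparum DNA-binding domains, expressed in E. coli and used at about 25 μg on average, was carried out for 1 h in 1× PBS containing 1% milk, 0.2 mg/ml BSA, 0.5% salmon testes DNA and 0.03% Triton X-100. The target was an Agilent 4 × 180k array of primer-extended double-stranded 36-bp intergenic genomic probes plus negative controls, read with Alexa488 anti-GST antibody at 488 nm. Binding intensity is the highest Masliner-normalised natural-log median intensity across replicate spots of either probe orientation.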

| Sequence | gcPBM binding intensity (ln) |
| --- | --- |
| GCATATTTTCCCTGTGAATAAAGTTTTTTTTTTTAT [XGTACX_negctrl_site87] | 8.54 ± 0.39 |
| ATATAAAAAAAAAATTGTACAAAAATATATACATAT [XGTACX_site469] | 8.53 ± 0.42 |
| TATAAAGATATAAATGCACACGTATTAAAAAAAAAA [CACACA_site8223] | 8.74 ± 0.3 |
| TTTATATATCAATACATTATGTATTAAGTCTTACAT [TGCATGCA_negctrl_site499] | 8.63 ± 0.34 |
| CAAAAAAAATTATACACACACACACCGATATATATA [CACACA_site4719] | 8.77 ± 0.45 |
| GGTATATAAAAATATTGTACGAAAATATGCATATAA [XGTACX_site2501] | 8.85 ± 0.35 |
| TTTTAATTAAAAAAATATATAATAAAATTAAATTAT [CACACA_negctrl_site95] | 8.23 ± 0.33 |
| AAATATAAAAAATATACACACATATAAAATCTATAT [CACACA_site7406] | 8.4 ± 0.3 |
| GTATGTTAATTTAATTGTACAAAAAGATACACTGAT [XGTACX_site5710] | 8.75 ± 0.34 |
| TTTTAAAAAAAACAAAAACATTGTCATATGGAAAAT [CACACA_negctrl_site297] | 8.75 ± 0.41 |
| AGGAACAATATATTTGCACACAAAAAATATATATTT [CACACA_site3316] | 8.62 ± 0.4 |
| AACATACCCATATACACACACACATAAATACAGATA [CACACA_site4744] | 8.73 ± 0.64 |
| ATGTTAATCATTAAAAATAAAGTTTAATATAAGAAT [XGTACX_negctrl_site155] | 8.45 ± 0.49 |
| CAAAACAAGCAAAAATGTACTTGATAAATATTTTCT [XGTACX_site1776] | 8.37 ± 0.4 |
| ATTTAATTCTTTTGTTATAAAATTTTAGTATATATA [CACACA_negctrl_site1649] | 8.7 ± 0.44 |
| AATACCGGAAAGCAAACACACATTTTAAAACCATAA [CACACA_site3862] | 8.79 ± 0.46 |
| ATAATAAATGATAGCACACATATGTACATATATACA [CACACA_site864] | 8.63 ± 0.24 |
| GATTATCTATCGCTTGAATGAAATGAAATCATGCAA [GTGCAC_negctrl_site471] | 8.41 ± 0.42 |
| AAATAAAATAAAAGCACACAAAATGTAAATAATTAT [CACACA_site2775] | 8.79 ± 0.32 |
| CGCGAACATACATACACACACATATTTATATAGGTA [CACACA_site6241] | 8.44 ± 0.46 |
| AAAATACTTTGAATTTGTACATATAGACATAATATT [XGTACX_site6181] | 8.31 ± 0.38 |
| AAAGAAATAAAAAAAAGTACACAATTATAAATATAT [XGTACX_site3428] | 8.79 ± 0.33 |

| Sequence | gcPBM binding intensity (ln) |
| --- | --- |
| GTATGTAATATTTTAGTGCAAAAAAAAAAAAAAAAA [GTGCAC_site9790] | 8.32 ± 0.19 |
| TATATATATATAATTTGTACATATATATGTAACAAT [XGTACX_site8728] | 9.72 ± 0.31 |
| TTCTGCTACCACTTGAATGTCAATGAAATTAAAAAA [CACACA_negctrl_site1164] | 8.55 ± 0.19 |
| ACTATAAATATTTATAAACACACAAATATATATATT [CACACA_site7891] | 8.78 ± 0.3 |
| ATTTATAAAACAGGCACACATATAATAAATTTTATA [CACACA_site2600] | 8.7 ± 0.61 |
| TAATAATTATTGCACGCACACAAAAACCTATAGATT [CACACA_site2931] | 8.68 ± 0.36 |
| ATTTTTTTTTTTACAGTGGAACCATATTTGCTCATT [CACACA_negctrl_site940] | 8.48 ± 0.32 |
| ATACAATACACCGAACGTACATAAATCTATCTTTTA [XGTACX_site3668] | 8.66 ± 0.38 |
| TTTTGTACAAAAATAATGCACACTATATCAAGTTTT [CACACA_site3595] | 8.9 ± 0.37 |
| AAGAAAATATATTCACATGAAGAATTAAAATAAAAC [TGCATGCA_negctrl_site119] | 8.86 ± 0.58 |
| ATATAAAAAGGAAAAAGTACAAAAAAATGTTTGTGA [XGTACX_site8552] | 8.52 ± 0.45 |
| TTTTTTTTTTTTTTTTTTGGTGAGAGAAGAAAATTC [CACACA_negctrl_site950] | 8.06 ± 0.34 |
| CAAATTATTATTTAAGCACACATGTTTATTTTTTTT [CACACA_site2672] | 8.62 ± 0.32 |
| TATGTGCCAAAACACACACACATATATATATATATA [CACACA_site469] | 10.2 ± 0.11 |
| TAGGCCTTAAATCGTGTGCACTTTTTTTTTTTTTTT | 8.925 ± 0.049 |
| AAATATATCAATATATATATATATATATATATATAT [XGTACX_negctrl_site544] | 10.1 ± 0.69 |
| AAGCATACATCAAGCACACACACACCCACACCCACA [CACACA_site372] | 8.76 ± 0.48 |
| TATGGTAAATACAACACACACACATATGTATTTATA [CACACA_site4666] | 8.69 ± 0.43 |
| TGGATATAAAACAACGTGCACTTGGTTGATTTTAAA [GTGCAC_site9900] | 8.68 ± 0.014 |
| ATTTATTTATATAATACACACAAATATCTTAATTAA [CACACA_site3993] | 8.15 ± 0.34 |
| TGTGCAAGATTTTTCTGTACATATATATAAATATAT [XGTACX_site1796] | 8.08 ± 0.34 |
| AAATATTCTTGTTTAATACACACTGTAGTATTATAT [CACACA_site433] | 8.62 ± 0.36 |
